Molecules are shown by their SMILES. The list shows a part of the results.

We go through 80 compounds from paper PMC12040169 (PLOS Biology, 2025).

This test deals with T1, C. trachomatis L2/434/Bu expressing GFP (CTL2-GFP).
T1 construct: L2/434/Bu GFP intracellular growth in HeLa cells
Also noted: species or system HeLa; C. trachomatis total inclusion area by high-content imaging, normalised to DMSO. The conditions noted are these: total inclusion area; 28.5 h, 10 µM; inhibitor. In outline:
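Host cell viability was gauged from Hoechst-stained nuclei counts, while chlamydial growth was taken from total inclusion area and inclusion number per well. Cells were fixed and imaged by high-content microscopy once bulk GFP and resorufin fluorescence had been measured.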
Consider `O=C(Cn1c2ccccc2c2ccccc21)N1CCn2cnnc2C1` [CBK283724], for which the “% of control remaining” value stood at 98.4455.

As to `COc1ccc(CNCCN)cc1` [CBK013010], the “% of control remaining” value came out at 49.5701. The figure for `CN1CCN(c2cc(N3CCN(S(=O)(=O)c4ccc5ccccc5c4)CC3)ccc2[N+](=O)[O-])CC1` [CBK264791] is 96.699; for `O=S(=O)(NN1CCOCC1)c1cc(Cl)cc(Cl)c1O` [CBK269279] it is 112.494; for `O=C(CCn1ncc2ccccc21)N1CCC(c2ccncc2)CC1` [CBK282395] it is 78.8. With `O=C(NCc1ccc(OC2CCNCC2)cc1)c1coc2c1C(=O)CCC2` [CBK038944T], the “% of control remaining” value is given as 98.4243.

Consider `Cc1nn(Cc2cccc(Oc3ccccc3)c2)c(C)c1NC(=O)c1nc2ncccn2n1` [CBK267632], for which the “% of control remaining” value stood at 85.4926.

Consider `Clc1ccc(COc2nccnc2OC2CCN(CCOc3ccccc3)CC2)cc1Cl` [CBK083121T], for which the “% of control remaining” value came out at 81.9816. Then `Nc1nnc(Cn2c(-c3nonc3N)nc3ccccc32)s1` [CBK263854], with 48.3394; and `Cc1noc(C)c1NC(=O)c1ccc2ncccc2c1` [CBK200308], with 104.233; and `C=CCC1(CC=C)CCN1C(=O)c1cc2c([nH]c1=O)CCCCC2` [CBK282524], with 126.791. Then `O=c1[nH]c(=O)c2cc(S(=O)(=O)Nc3cccc(-c4ccc(F)cc4)c3)ccc2[nH]1` [CBK286394], with 115.619. As for `CCCc1[nH]nc(O)c1CCc1ccc(OC)cc1` [CBK081128], the “% of control remaining” value worked out at 108.709. The figure for `CC(=O)Nc1ccc(C(=O)NC(c2cccs2)C2CCCC2)cc1` (centres unmarked) [CBK297777] is 101.474; for `Cc1c(C(=O)C2=C(O)C(=O)N(Cc3cccnc3)C2c2cccnc2)cnn1-c1ccccc1` (centres unmarked) [CBK266543] it is 115.892.

In the case of `COc1cccn(CC(=O)N2CCc3sc(C(=O)N(C)C)cc3C2)c1=O` [CBK307665], the “% of control remaining” value came out at 89.1924. For `COc1ccc(OCC(=O)Nc2nonc2-c2ccccc2)cc1` [CBK287798], the “% of control remaining” value was found to be 104.208.

In the case of `Cc1ccc2nc(-c3ccc(N4C(=O)CC(N5CCC(N6CCCCC6)CC5)C4=O)cc3)sc2c1` (centres unmarked) [CBK265315], the “% of control remaining” value is listed as 94.4817. `COc1cc(/C=N/NC(=O)Cc2nnc(N)s2)cc(OC)c1OC` [CBK262027]: the “% of control remaining” value came to 95.8326.

Turning to `CCn1ncc2c1CCCC2NC1CCN(c2ccc(C#N)cc2)C1=O` (centres unmarked) [CBK305200], the “% of control remaining” value was 69.8709. Turning to `O=C(OCC#CCSc1nnc(-c2ccncc2)o1)c1sc2ccccc2c1Cl` [CBK265677], the “% of control remaining” value was found to be 101.549. Regarding `O=C1c2ccccc2C2(c3ccccc3)NCCN12` (centres unmarked) [CBK067098], the “% of control remaining” value amounted to 102.829. Then `Cc1ccc(S(=O)(=O)N(CC(=O)NCC2CCCO2)c2ccccc2)cc1` (centres unmarked) [CBK264140], with 111.295; and `COc1ccc(Oc2c(-c3ccc(O)cc3O)n[nH]c2C)cc1` [CBK288239], with 85.4035. Consider `O=C(CC1CCN(CCc2ccccc2)CC1)Nc1cccc(-n2cccn2)c1` [CBK285951], for which the “% of control remaining” value is 0.729. On to `COc1cccc(/C=N/c2cc(S(=O)(=O)c3ccc(O)c(/N=C/c4cccc(OC)c4O)c3)ccc2O)c1O` [CBK261225], for which the “% of control remaining” value was 89.9616.

With `COc1ccccc1Nc1nc(C)cc(C)c1C(N)=O` [CBK287960], the “% of control remaining” value is on record as 124.597.

With `CCCn1ncc(C(=O)NC(C)c2c(C)nn(CC)c2C)c1C` (centres unmarked) [CBK281532], the “% of control remaining” value came to 104.982.

For the compound `Cn1ncc2ccc(-c3nnn[nH]3)cc21` [CBK304776], the “% of control remaining” value was 29.8956. Then `COc1ncc(-c2cn3ccnc3c(N3CCN(CCO)CC3)n2)c(OC)n1` [CBK037869], with 58.8292; and `COC(=O)c1ccc(N2CCN(C(C)c3nnc(C)o3)C(C)C2)cc1` (centres unmarked) [CBK304926], with 132.579. In the case of `N#Cc1cc(CN2CCCN(S(=O)(=O)c3ccc(C(=O)c4ccccc4)cc3)CC2)ccc1F` [CBK062768], the “% of control remaining” value amounted to 77.3811.

Take `Cc1ccc(S(=O)(=O)/N=C(/NCc2ccc(Cl)cc2)Nc2nc(C)cc(C)n2)cc1` [CBK263785]: the “% of control remaining” value was determined as 92.8644.

As for `CCN1CCN(C(=O)c2ccc(CN(c3ccc(C)c(C)c3)S(C)(=O)=O)cc2)CC1` [CBK267132], the “% of control remaining” value amounted to 103.922. Consider `Cc1cc(OCCCCNCCO)ccc1Cl` [CBK033516], for which the “% of control remaining” value came out at 64.3711. Then `COc1ccc(C(N)C2(O)CCN(Cc3ccccc3)CC2)cc1` (centres unmarked) [CBK091386], with 125.332; and `Cc1onc(-c2ccccc2)c1CNC(=O)Cn1cc(C)c(=O)[nH]c1=O` [CBK144094], with 94.387. With `Cc1cccn2cc(CC(=O)NC3(C#N)CCCCC3)nc12` [CBK306252], the “% of control remaining” value worked out at 39.3182. With `CN1CCN(c2nc(-c3cc4ccccc4s3)cn3ccnc23)CC1` [CBK066388], the “% of control remaining” value is on record as 89.4194. Regarding `CN(C)c1ccc(NC(=O)C(Cc2ccccc2)N2C(=O)c3ccccc3C2=O)cc1` (centres unmarked) [CBK262413], the “% of control remaining” value is on record as 105.892. Consider `O=C(Nc1ccccc1[N+](=O)[O-])c1cc(S(=O)(=O)NCc2ccccc2)c(Cl)cc1Cl` [CBK263240], for which the “% of control remaining” value is 75.8162. Take `Clc1ccccc1-c1nnc(Cn2c3ccc(Br)cc3c3nc4ccccc4nc32)o1` [CBK269091]: the “% of control remaining” value turned out to be 44.3421. Consider `CC(=O)Nc1ccc(-c2cncc(NC3CCC(O)CC3)n2)cc1` (centres unmarked) [CBK065886], for which the “% of control remaining” value is 123.387. Take `CN(C)S(=O)(=O)NC1CC(C)(C)Cc2c1cnn2-c1ccc(F)cc1` (centres unmarked) [CBK306646]: the “% of control remaining” value was found to be 54.6991. `COc1cc(/C=N/NC(=O)CCN2CCN(C)CC2)cc(OC)c1O` [CBK261500]: the “% of control remaining” value is 83.4816. For the compound `O=C(O)CNC(=O)CN1C(=O)c2ccc(C(=O)O)cc2C1=O` [CBK264080], the “% of control remaining” value is recorded as 110.749. Then `C=CCC1c2cccc(C(=O)O)c2C(=O)N1c1cccc(OC)c1` (centres unmarked) [CBK113160], with 105.596; and `Cc1cc(NS(=O)(=O)c2ccccc2Br)n(C)n1` [CBK067376], with 82.3367; and `COc1nc(OCCNS(=O)(=O)c2ccc(C)cc2)nc(N(C)C)n1` [CBK266752], with 108.263. For the compound `COc1cccc2c(=O)n(CCCn3nc(C)nc3C)cnc12` [CBK307295], the “% of control remaining” value is given as 50.306.

With `Cc1cccnc1NC(=S)Nc1ccc(S(N)(=O)=O)cc1` [CBK267049], the “% of control remaining” value stood at 107.64. Then `CC(C)Cn1cnc2c(Cl)nc3ccccc3c21` [CBK017530], with 70.0461; and `O=C(CSc1ncccc1C(=O)O)c1ccccc1` [CBK273178], with 109.498. Then `Cc1cc(C(=O)NCCc2ccc(S(N)(=O)=O)cc2)ccc1[N+](=O)[O-]` [CBK264390], with 110.831; and `O=C(NCCN1CCc2ccccc21)C1CC2C=CC1O2` (centres unmarked) [CBK283158], with 96.1296.

For `Cc1ccc(NC(=O)Cn2cnc3sc(C(=O)Nc4ccccc4)c(C)c3c2=O)cc1` [CBK265931], the “% of control remaining” value is 133.519.

As to `CN1CCOc2ccccc2C(=O)NC/C=C/CC2(CCN(C(=O)c3ccc(F)cc3)CC2)C1=O` [CBK292055], the “% of control remaining” value came out at 138.107. On to `CCOCc1c(O)ccc2c([N+](=O)[O-])c(C)n(-c3ccc(OC)cc3)c12` [CBK095589], for which the “% of control remaining” value came to 85.3004. Regarding `OCc1ccc(-n2ncc(-c3ccc(Br)cc3F)n2)cc1` [CBK112920], the “% of control remaining” value is 72.094. Take `Nc1nc2c3c(c(-c4ccccc4)nc2[nH]1)CCCC3` [CBK020648]: the “% of control remaining” value amounted to 79.6185.

Consider `O=C(COc1ccc2c(c1)OCO2)N1CCN(Cc2ccccc2)CC1` [CBK269977], for which the “% of control remaining” value stood at 103.308.

Take `Cc1cc(C)nc(CCNCc2c(C(C)C)nn(C)c2N(C)C)n1` [CBK305159]: the “% of control remaining” value is 81.7671. The figure for `COc1ccc(CCNC(=O)c2nc3ncccn3n2)cc1OC` [CBK268795] is 134.446; for `CCCCCc1ccc(S(=O)(=O)N2CCN(C(=O)C3CCCO3)CC2)cc1` (centres unmarked) [CBK044329] it is 91.9889. Take `CC1(NC(=O)c2cccc(OCCN3CCCC3=O)c2)CCC1` [CBK281602]: the “% of control remaining” value was 95.4016. Then `Cc1ccc(CN(CC2CCOC2)C2CC(C)(C)NC(C)(C)C2)o1` (centres unmarked) [CBK283174], with 71.052; and `Cn1c(Cc2csc(NC(=O)c3ccc(Cl)cc3F)n2)n[nH]c1=S` [CBK296635], with 85.3925; and `c1cnn(CC2CCCCN2c2ncnc3sccc23)c1` (centres unmarked) [CBK304969], with 54.5127. The figure for `O=C(Nc1ccc2[nH]ccc2c1)c1ccc(OC(F)(F)F)cc1` [CBK159688] is 39.4069.

With `Cc1nc2c(C(=O)NCC3OCCO3)cnn2c(C)c1Cc1ccc(Br)cc1` [CBK167467], the “% of control remaining” value was 84.4151. As to `CC(=O)Nc1cccc(C(=O)N(Cc2ccccc2)Cc2ccccc2)c1` [CBK269295], the “% of control remaining” value is on record as 106.299.

Turning to `O=C(O)c1cnc2ccc(F)cc2c1N1CCOCC1` [CBK287851], the “% of control remaining” value is given as 80.4686. For `COCCCNC(=O)Cn1cccc2cc(-c3ccc(F)cc3)nc1-2` [CBK284834], the “% of control remaining” value amounted to 113.761. With `O=C(Cc1ccsc1)N1CCC2(CCN(Cc3ccccc3)CC2)C1` [CBK136742], the “% of control remaining” value is reported as 91.3009. Regarding `CCOc1cc(OCC)cc(C(=O)N2CCC3(CC2)NC(=O)c2ccc(C)cc2O3)c1` [CBK166215], the “% of control remaining” value turned out to be 83.663. For `c1cnn(C2CCN(Cc3ccc(Oc4cnccn4)cc3)CC2)c1` [CBK306417], the “% of control remaining” value stood at 60.2682.

As to `COc1nc2nonc2nc1OC` [CBK028544], the “% of control remaining” value is 41.6083. For `COC1CCCC(C(=O)N2CCCC2c2nc3ccccc3[nH]2)C1` (centres unmarked) [CBK284007], the “% of control remaining” value is on record as 74.3393. For `O=C(NC1CCCCC1)N[C@H]1[C@H](O)[C@@H](N2CCN(c3ccccc3)CC2)[C@@H]2OC[C@H]1O2` [CBK288822], the “% of control remaining” value was determined as 124.26. For `O=C(CSCCO)Nc1cccc2ccccc12` [CBK265623], the “% of control remaining” value was 109.977.
